The RNAGym collection of RNA variant scans (doi:10.7554/elife.90254)
The source gives no read counts; variants with many changes may rest on few reads.

B1: LINE1-mini (parent)
chain: GGCAGAGCUCAACACAGCGUGGCAAAGUGGCUGUGGCUAGACUGCC

Variants of: B1
Test: self-cleavage, relative activity (ratio to wild type); higher = more cleavage; in vitro, sequencing; the parent is a self-cleaving ribozyme

Variant | self-cleavage
C3G C10U G27A A39G G44U | 0.05
C3G C8G G17U U32A C37A | 0.03
C3G A12G G21U U34G | 0.01
C3G A12C C15U G29U G30A | 0.06
C3G C15G G36A U38G C46A | 0.04
C3A G33A C37A | 0.41
C3A U9G C10U A24C G44A | 0.03
C3G A4C C23A C37A | 0.04
C3G A6G G7U G35U | 0.15
C3G A6U G7U C18G C23U | 0.13
C3G A4C G19A A24G | 0.02
C3A G33A A39U A41U | 0.07
C3G C13G G27U | 0.45
C3G A14C G27U C31U | 0.02
C3G C18U G29C | 0.26
C3A G27C G30U C37A | 0.61
C3A U34C U38G | 0.04
C3G C8G C23A U38A | 0.04
C3A G22U U38C | 0.23
C3G C10U G21C G27U G30C G35C | 0.07
C3G C15G G29U | 0.19
C3G C8A G22U C23G G40U | 0.09
C3A U28A C42A | 0.06
C3G C10U A25G A39G C45G | 0.03

Variant | self-cleavage
C3G C15U C45A | 0.27
C3A U34A G35U A39U C42A | 0.04
C3G A4U G33U | 0.12
C3G A16G C23A | 0.17
C3G C8U G22C A26U C37G G44U | 0.02
C3G A26U U28G A41C | 0.07
C3G A16G G27C C37G | 0.15
C3G C18A A25C C31U | 0.05
C3A U20C G21U G29U C45U | 0.26
C3G C13U C18U G19A A41G | 0.02
C3G A6C G17A G22U U34A | 0.09
C3G A6C C8G C13A C42U | 0.01
C3G C10A A26G C31G G33C | 0.04
C3G A4U A24C G44A | 0.04
C3G A25U U43C | 0.14
C3G C15A A41C | 0.16
C3G A4C C31A C37U | 0.05
C3G A4U G5U C10G G40U | 0.02
C3A G40A G44A C45G | 0.15
C3G A14C C18G G36C C45U | 0.04
C3G C8U A41U | 0.36
C3G A14G A26G C37G | 0.84
C3G C8U U32A C42A G44U | 0.32
C3G C13U C18A G27U G29U | 0.02

Variant | self-cleavage
C3A U9C A14C | 0.03
C3G A25C G29A C37G | 0.02
C3G A12C C15A U20G A25U | 0.04
C3A G30U C31U G40U A41G C46A | 0.29
C3G A25C U38A | 0.04
C3G A4C U9A G21U A25C | 0.02
C3G A6C C8U G29U C45A | 0.29
C3A G40C U43A | 0.16
C3A U9C G17A G30U G40U | 0.01
C3G C10U U34C G40C | 0.06
C3G A12U G17C | 0.05
C3G A26C U34A | 0.05
C3G C10A A11U G27C G29U | 0.02
C3G C13A G27A A41U | 0.06
C3G C13U A16U U32G | 0.08
C3A U38C C42U | 0.38
C3G A6G A11U U38C | 0.01
C3A U9C C13G G19U | 0.03
C3G C8U C13U A39G C42U | 0.13
C3G C18A G44U C46A | 0.08
C3G C15G A26U G27C | 0.02
C3G C10A C31U | 0.03
C3A U20G G22C G36C | 0.25
C3G A4G C23A | 0.08

Variant | self-cleavage
C3A U20G U34A | 0.14
C3G C8A G17U G22C C37A | 0.01
C3G A6G C13A C15G U32G | 0.06
C3A U32G G35A | 0.09
C3G C15U A24U | 0.5
C3A U38C A39C | 0.38
C3G C8A G36A U43A | 0.22
C3G A25C G29U G44C | 0.7
C3G A16U G27U A41G | 0.07
C3G C10G G21A A24G G35A U38C A41U | 0
C3A G30A U38G | 0.14
C3A G30A C46U | 0.16
C3A U38C G44A | 1.5
C3A U9A U28G U38A | 0.17
C3G A14U G35C | 0.07
C3G A11C G17U C31G | 0.01
C3G A4G C8U U32G | 0.08
C3A U28G G35U G44U | 0.1
C3G C10U C13A G30C U32A | 0.02
C3G A4G C8U U9A | 0.08
C3G C10G G44A | 0.04
C3G A14G A25C | 0.1
C3G A25G C42A | 0.14
C3G A12C C42A G44C C45U C46G | 0.04

Variant | self-cleavage
C3G A41U C45U | 0.45
C3G C18G G35C C37G A39C | 0.03
C3G A4C A14G C15U G44A | 0.14
C3A U34C U38G C42G | 0.17
C3A G29U G30U U34C C42U | 0.17
C3G A14G A25U G27C G36U | 0.48
C3G C10A G17U C31A | 0.03
C3A U20A A26G G30A U34A | 0.08
C3G A4U U20A G36U G40U | 0.03
C3G C23A U32G A39U U43A | 0.06
C3G C8U C15A C45G C46A | 0.68
C3G A12C C13G U32G | 0.05
C3G A4G A16U G33U A39C C46A | 0.03
C3A U43C G44C | 0.12
C3G C10U G29U C31U C37G | 0.12
C3G A24U C31G | 0.14
C3G C15G A26G | 0.08
C3G A12G G17U G36C U43G | 0
C3G A4C A26C G29C | 0.13
C3G A25U U34A G35A | 0.06
C3A U9G C10A C15U A16C C18G U34G G36A G44A | 0.02
C3G A4C A6U A12C U32C G40U C45G | 0
C3A U9A C18U A24C A25U U34G C45A | 0.57
C3G A4U C10U G29C | 0

Variant | self-cleavage
C3G C10U A12G | 0.02
C3G A4C G5A A6G G7A C8A G40C | 0.16
C3G C10U A16U U20C G40A | 0.06
C3G C8A A14U | 0.1
C3G C8A C31G C37G | 0.09
C3A G30A U43A | 0.06
C3G C8U G21U | 0.11
C3A U9A G40A | 0.34
C3G C8U C18G | 0.06
C3A U9G C31U G33U U43G | 0.05
C3A U28A U34C G36A A39G G40U | 0.07
C3G A4C A11G C23A A26C | 0.02
C3A G22U U28C U32C | 0.35
C3G C8A G17A G29A | 0.3
C3G C8A A16G G19A A25U C31G | 1.07
C3G C8A A12C | 0.21
C3G C13U G36U C45A | 1.86
C3G C13U C15G G30U | 0.07
C3G A4G A14G C15G G36A | 0.09
C3G A16C C23A C31U G40C | 0
C3G A16G C23G G44U | 0.15
C3A G36A C37G | 0.07
C3G C13A A14G G17C A25U U28C | 0.06
C3G A4U C13G C45U | 0.02

Variant | self-cleavage
C3G C10G G19A | 0.02
C3G A25U U38G | 0.17
C3G A4C G7U U38C G44U | 0.2
C3G A16G G35U | 0.07
C3A U9G C18G A39U | 0.45
C3G C10U A11C G27A U32C | 0.04
C3G A16C G27A U28G U34A U38G | 0.03
C3G C15U G17A G21C G40U | 0.11
C3A U9G U34C | 0.19
C3G A39U C42A | 0.06
C3G A6U G44A C45U | 0.68
C3G A4U C18A G29C | 0.09
C3G A11C C31G | 0.01
C3G A14U G22U | 0.37
C3G A4C A6G | 0.07
C3G A4C A6U | 0.26
C3A G30A A39C G40C | 0.09
C3G A16G U20A | 0.06
C3A U20G G36C | 0.01
C3G A6C G7U A14U | 2.34
C3G A12U C15A G19U U32C | 0.26
C3G C13G C42G C46G | 0.01
C3G C10G G33C | 0.02
